The supplement of paper PMC10126150
Values marked as one replicate rest on one cluster of the flow cell; about a third of the high ones do not repeat.
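Also: ATP exposure 15 min at 22 °C before imaging.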

What follows are sequences tested on ATP (assay: switch fluorescence ratio, 500 uM ATP over buffer (Cy3 cluster intensity, sum of 5 cycles each) (fold (ratio)); higher = stronger signal-on switching upon ATP binding; sequences stand for … in TCGTCGGCAGCGTCAGATGTGTATAAGAGACAGTTTTTTTTTTTTTTTTTTTTTTTTT…TC). Details: aptamer strand: ATP DNA aptamer (quencher-CACCTGGGGGAGTATTGCGGAGGAAGG + anchor), 100 nM annealed; ATP concentration: 500 uM; one replicate.
Method in brief: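 The fluorescence ratio divides summed target-cycle Cy3 intensity by summed buffer-cycle Cy3 intensity for each cluster and is averaged per switch-domain sequence. Cy3-labelled switching-strand clusters on a modified Illumina MiSeq flow-cell were annealed to 100 nM quencher-labelled ATP aptamer, then imaged in selection buffer and again after 15 min with 500 uM ATP at 22 °C. Five such cycles were run, with NaOH stripping and re-annealing between them, and clusters outside 100-1000 RFU were excluded.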
CCGGTCGCAC was tested, and the switch fluorescence ratio was 3.18. With CCGGTCGGCG the switch fluorescence ratio was 0.953. In the case of CCGGTGACAC, the switch fluorescence ratio was 1.38. In the case of CCGGTGATTA, the switch fluorescence ratio was 1.07. CCGGTTCAAT was tested, and the switch fluorescence ratio was 2.9. In the case of CCGTAAATGA, the switch fluorescence ratio was 2.21. In the case of CCGTAACATG, the switch fluorescence ratio was 1.32. Sequence CCGTAAGGAT has a switch fluorescence ratio of 2.12. Sequence CCGTACAAAT has a switch fluorescence ratio of 1.78. CCGTACACA gave a switch fluorescence ratio of 1.16. CCGTAGGGCG gave a switch fluorescence ratio of 0.99. CCGTATTA was tested, and the switch fluorescence ratio was 1.2. Work on CCGTATTAAG yielded a switch fluorescence ratio of 1.03. CCGTATTACC gave a switch fluorescence ratio of 2.61. Work on CCGTCAATGG yielded a switch fluorescence ratio of 3.97. Work on CCGTCCGGAC yielded a switch fluorescence ratio of 1.1. CCGTCCGGCC was tested, and the switch fluorescence ratio was 1.3. In the case of CCGTCCTATA, the switch fluorescence ratio was 1.32. Work on CCGTCGTAA yielded a switch fluorescence ratio of 4.27. Work on CCGTCGTCCC yielded a switch fluorescence ratio of 1.2. Work on CCGTGATTGA yielded a switch fluorescence ratio of 1.06. CCGTGGAAGG gave a switch fluorescence ratio of 0.994. CCGTGGATTT gave a switch fluorescence ratio of 0.995. In the case of CCGTGGCTG, the switch fluorescence ratio was 1.02. CCGTGGTCGT showed a switch fluorescence ratio of 1.05. CCGTGGTCTG showed a switch fluorescence ratio of 0.988. CCGTGTCTTA gave a switch fluorescence ratio of 0.984. In the case of CCGTTACCGC, the switch fluorescence ratio was 2.35. For CCGTTAGCAT, the switch fluorescence ratio was 4.34. With CCGTTAGCT the switch fluorescence ratio was 1.65. For CCGTTCCGAA, the switch fluorescence ratio was 1.62. CCGTTCTCG was tested, and the switch fluorescence ratio was 1.03. Sequence CCGTTTAACG has a switch fluorescence ratio of 1.06. For CCGTTTCTTC, the switch fluorescence ratio was 1.05. CCGTTTGGAA showed a switch fluorescence ratio of 1.03. For CCGTTTTTTT, the switch fluorescence ratio was 0.958. With CCTAACATCG the switch fluorescence ratio was 1.06. In the case of CCTAATTGTG, the switch fluorescence ratio was 0.95. Work on CCTACCTCGA yielded a switch fluorescence ratio of 1.6. Sequence CCTACGATGT has a switch fluorescence ratio of 2.38. In the case of CCTACTACAT, the switch fluorescence ratio was 1.13. Work on CCTAGAAAGT yielded a switch fluorescence ratio of 0.991. CCTAGAAGAG gave a switch fluorescence ratio of 1.01. For CCTAGCGTTC, the switch fluorescence ratio was 2.18. CCTAGGGTCC was tested, and the switch fluorescence ratio was 1.04. In the case of CCTAGTATGA, the switch fluorescence ratio was 1.02. CCTAGTGAAG gave a switch fluorescence ratio of 1.03. CCTATAAGCG gave a switch fluorescence ratio of 1.12. With CCTATCGGAT the switch fluorescence ratio was 1.23. For CCTATCGGTC, the switch fluorescence ratio was 1.25. In the case of CCTATTTGT, the switch fluorescence ratio was 0.983. With CCTCAACATG the switch fluorescence ratio was 1.43. CCTCAAGGGA showed a switch fluorescence ratio of 1.04. For CCTCAAGTA, the switch fluorescence ratio was 2.23. CCTCACTGAA showed a switch fluorescence ratio of 1.21. In the case of CCTCAGGGTC, the switch fluorescence ratio was 1.46. For CCTCCTCGAT, the switch fluorescence ratio was 3.57. With CCTCCTGGCT the switch fluorescence ratio was 1.7. In the case of CCTCGATTAA, the switch fluorescence ratio was 1.06. Work on CCTCGGTTAA yielded a switch fluorescence ratio of 2.92. CCTCGTGGCC was tested, and the switch fluorescence ratio was 1.13. Sequence CCTCTATTCC has a switch fluorescence ratio of 1.31. Work on CCTCTCATTC yielded a switch fluorescence ratio of 5.36. Sequence CCTCTCTCGA has a switch fluorescence ratio of 1.67. CCTCTTAT gave a switch fluorescence ratio of 1.06. In the case of CCTCTTATGA, the switch fluorescence ratio was 1.2. For CCTGAACGCG, the switch fluorescence ratio was 1.05. In the case of CCTGAATGGG, the switch fluorescence ratio was 1.05. For CCTGATACAG, the switch fluorescence ratio was 1.03. CCTGATGTAA showed a switch fluorescence ratio of 1.01. With CCTGATTATG the switch fluorescence ratio was 0.992. CCTGCACTGT showed a switch fluorescence ratio of 1.15. For CCTGCAGAGT, the switch fluorescence ratio was 1.11. For CCTGCCAACA, the switch fluorescence ratio was 1.67. CCTGCCCCCT gave a switch fluorescence ratio of 1.14. In the case of CCTGCCCGGG, the switch fluorescence ratio was 1.04. CCTGCGAGCA was tested, and the switch fluorescence ratio was 1.06.
